AlphaScreen luminescence signal data for nine molecules are collected here from the supplement of paper PMC12423691.

To fix the notation:
B1: ASCL2, Q99929 (protein)
chain: MDGGTLPRSAPPAPPVPVGCAARRRPASPELLRCSRRRRPATAETGGGAAAVARRNERERNRVKLVNLGFQALRQHVPHGGASKKLSKVETLRSAVEYIRALQRLLAEHDAVRNALAGGLRPQAVRPSAPRGPPGTTPVAASPSRASSSPGRGGSSEPGSPRSAYSSDDSGCEGALSPAERELLDFSSWLGGY
B2: NKX3-1, Q99801 (protein)
chain: MLRVPEPRPGEAKAEGAAPPTPSKPLTSFLIQDILRDGAQRQGGRTSSQRQRDPEPEPEPEPEGGRSRAGAQNDQLSTGPRAAPEEAETLAETEPERHLGSYLLDSENTSGALPRLPQTPKQPQKRSRAAFSHTQVIELERKFSHQKYLSAPERAHLAKNLKLTETQVKIWFQNRRYKTKRKQLSSELGDLEKHSSLPALKEEAFSRASLVSVYNSYPYYPYLYCVGSWSPAFW
B3: FLI1, Q01543 (protein)
chain: MDGTIKEALSVVSDDQSLFDSAYGAAAHLPKADMTASGSPDYGQPHKINPLPPQQEWINQPVRVNVKREYDHMNGSRESPVDCSVSKCSKLVGGGESNPMNYNSYMDEKNGPPPPNMTTNERRVIVPADPTLWTQEHVRQWLEWAIKEYSLMEIDTSFFQNMDGKELCKMNKEDFLRATTLYNTEVLLSHLSYLRESSLLAYNTTSHTDQSSRLSVKEDPSYDSVRRGAWGNNMNSGLNKSPPLGGAQTISKNTEQRPQPDPYQILGPTSSRLANPGSGQIQLWQFLLELLSDSANASCITWEGTNGEFKMTDPDEVARRWGERKSKPNMNYDKLSRALRYYYDKNIMTKVHGKRYAYKFDFHGIAQALQPHPTESSMYKYPSDISYMPSYHAHQQKVNFVPPHPSSMPVTSSSFFGAASQYWTSPTGGIYPNPNVPRHPNTHVPSHLGSYY
B4: FOXR1, Q6PIV2 (protein)
chain: MGNELFLAFTTSHLPLAEQKLARYKLRIVKPPKLPLEKKPNPDKDGPDYEPNLWMWVNPNIVYPPGKLEVSGRRKREDLTSTLPSSQPPQKEEDASCSEAAGVESLSQSSSKRSPPRKRFAFSPSTWELTEEEEAEDQEDSSSMALPSPHKRAPLQSRRLRQASSQAGRLWSRPPLNYFHLIALALRNSSPCGLNVQQIYSFTRKHFPFFRTAPEGWKNTVRHNLCFRDSFEKVPVSMQGGASTRPRSCLWKLTEEGHRRFAEEARALASTRLESIQQCMSQPDVMPFLFDL
B5: RB1, P06400 (protein)
chain: MPPKTPRKTAATAAAAAAEPPAPPPPPPPEEDPEQDSGPEDLPLVRLEFEETEEPDFTALCQKLKIPDHVRERAWLTWEKVSSVDGVLGGYIQKKKELWGICIFIAAVDLDEMSFTFTELQKNIEISVHKFFNLLKEIDTSTKVDNAMSRLLKKYDVLFALFSKLERTCELIYLTQPSSSISTEINSALVLKVSWITFLLAKGEVLQMEDDLVISFQLMLCVLDYFIKLSPPMLLKEPYKTAVIPINGSPRTPRRGQNRSARIAKQLENDTRIIEVLCKEHECNIDEVKNVYFKNFIPFMNSLGLVTSNGLPEVENLSKRYEEIYLKNKDLDARLFLDHDKTLQTDSIDSFETQRTPRKSNLDEEVNVIPPHTPVRTVMNTIQQLMMILNSASDQPSENLISYFNNCTVNPKESILKRVKDIGYIFKEKFAKAVGQGCVEIGSQRYKLGVRLYYRVMESMLKSEEERLSIQNFSKLLNDNIFHMSLLACALEVVMATYSRSTSQNLDSGTDLSFPWILNVLNLKAFDFYKVIESFIKAEGNLTREMIKHLERCEHRIMESLAWLSDSPLFDLIKQSKDREGPTDHLESACPLNLPLQNNHTAADMYLSPVRSPKKKGSTTRVNSTANAETQATSAFQTQKPLKSTSLSLFYKKVYRLAYLRLNTLCERLLSEHPELEHIIWTLFQHTLQNEYELMRDRHLDQIMMCSMYGICKVKNIDLKFKIIVTAYKDLPHAVQETFKRVLIKEEEYDSIIVFYNSVFMQRLKTNILQYASTRPPTLSPIPHIPRSPYKFPSSPLRIPGGNIYISPLKSPYKISEGLPTPTKMTPRSRILVSIGESFGTSEKFQKINQMVCNSDRVLKRSAEGSNPPKPLKKLRFDIEGSDEADGSKHLPGESKFQQKLAEMTSTRTRMQKQKMNDSMDTSNKEEK
B6: CDX4, O14627 (protein)
chain: MYGSCLLEKEAGMYPGTLMSPGGDGTAGTGGTGGGGSPMPASNFAAAPAFSHYMGYPHMPSMDPHWPSLGVWGSPYSPPREDWSVYPGPSSTMGTVPVNDVTSSPAAFCSTDYSNLGPVGGGTSGSSLPGQAGGSLVPTDAGAAKASSPSRSRHSPYAWMRKTVQVTGKTRTKEKYRVVYTDHQRLELEKEFHCNRYITIQRKSELAVNLGLSERQVKIWFQNRRAKERKMIKKKISQFENSGGSVQSDSDSISPGELPNTFFTTPSAVRGFQPIEIQQVIVSE
B7: KDM5A, P29375 (protein)
chain: MAGVGPGGYAAEFVPPPECPVFEPSWEEFTDPLSFIGRIRPLAEKTGICKIRPPKDWQPPFACEVKSFRFTPRVQRLNELEAMTRVRLDFLDQLAKFWELQGSTLKIPVVERKILDLYALSKIVASKGGFEMVTKEKKWSKVGSRLGYLPGKGTGSLLKSHYERILYPYELFQSGVSLMGVQMPNLDLKEKVEPEVLSTDTQTSPEPGTRMNILPKRTRRVKTQSESGDVSRNTELKKLQIFGAGPKVVGLAMGTKDKEDEVTRRRKVTNRSDAFNMQMRQRKGTLSVNFVDLYVCMFCGRGNNEDKLLLCDGCDDSYHTFCLIPPLPDVPKGDWRCPKCVAEECSKPREAFGFEQAVREYTLQSFGEMADNFKSDYFNMPVHMVPTELVEKEFWRLVSSIEEDVIVEYGADISSKDFGSGFPVKDGRRKILPEEEEYALSGWNLNNMPVLEQSVLAHINVDISGMKVPWLYVGMCFSSFCWHIEDHWSYSINYLHWGEPKTWYGVPSHAAEQLEEVMRELAPELFESQPDLLHQLVTIMNPNVLMEHGVPVYRTNQCAGEFVVTFPRAYHSGFNQGYNFAEAVNFCTADWLPIGRQCVNHYRRLRRHCVFSHEELIFKMAADPECLDVGLAAMVCKELTLMTEEETRLRESVVQMGVLMSEEEVFELVPDDERQCSACRTTCFLSALTCSCNPERLVCLYHPTDLCPCPMQKKCLRYRYPLEDLPSLLYGVKVRAQSYDTWVSRVTEALSANFNHKKDLIELRVMLEDAEDRKYPENDLFRKLRDAVKEAETCASVAQLLLSKKQKHRQSPDSGRTRTKLTVEELKAFVQQLFSLPCVISQARQVKNLLDDVEEFHERAQEAMMDETPDSSKLQMLIDMGSSLYVELPELPRLKQELQQARWLDEVRLTLSDPQQVTLDVMKKLIDSGVGLAPHHAVEKAMAELQELLTVSERWEEKAKVCLQARPRHSVASLESIVNEAKNIPAFLPNVLSLKEALQKAREWTAKVEAIQSGSNYAYLEQLESLSAKGRPIPVRLEALPQVESQVAAARAWRERTGRTFLKKNSSHTLLQVLSPRTDIGVYGSGKNRRKKVKELIEKEKEKDLDLEPLSDLEEGLEETRDTAMVVAVFKEREQKEIEAMHSLRAANLAKMTMVDRIEEVKFCICRKTASGFMLQCELCKDWFHNSCVPLPKSSSQKKGSSWQAKEVKFLCPLCMRSRRPRLETILSLLVSLQKLPVRLPEGEALQCLTERAMSWQDRARQALATDELSSALAKLSVLSQRMVEQAAREKTEKIISAELQKAAANPDLQGHLPSFQQSAFNRVVSSVSSSPRQTMDYDDEETDSDEDIRETYGYDMKDTASVKSSSSLEPNLFCDEEIPIKSEEVVTHMWTAPSFCAEHAYSSASKSCSQGSSTPRKQPRKSPLVPRSLEPPVLELSPGAKAQLEELMMVGDLLEVSLDETQHIWRILQATHPPSEDRFLHIMEDDSMEEKPLKVKGKDSSEKKRKRKLEKVEQLFGEGKQKSKELKKMDKPRKKKLKLGADKSKELNKLAKKLAKEEERKKKKEKAAAAKVELVKESTEKKREKKVLDIPSKYDWSGAEESDDENAVCAAQNCQRPCKDKVDWVQCDGGCDEWFHQVCVGVSPEMAENEDYICINCAKKQGPVSPGPAPPPSFIMSYKLPMEDLKETS
B8: ERF, P50548 (protein)
chain: MKTPADTGFAFPDWAYKPESSPGSRQIQLWHFILELLRKEEYQGVIAWQGDYGEFVIKDPDEVARLWGVRKCKPQMNYDKLSRALRYYYNKRILHKTKGKRFTYKFNFNKLVLVNYPFIDVGLAGGAVPQSAPPVPSGGSHFRFPPSTPSEVLSPTEDPRSPPACSSSSSSLFSAVVARRLGRGSVSDCSDGTSELEEPLGEDPRARPPGPPDLGAFRGPPLARLPHDPGVFRVYPRPRGGPEPLSPFPVSPLAGPGSLLPPQLSPALPMTPTHLAYTPSPTLSPMYPSGGGGPSGSGGGSHFSFSPEDMKRYLQAHTQSVYNYHLSPRAFLHYPGLVVPQPQRPDKCPLPPMAPETPPVPSSASSSSSSSSSPFKFKLQPPPLGRRQRAAGEKAVAGADKSGGSAGGLAEGAGALAPPPPPPQIKVEPISEGESEEVEVTDISDEDEEDGEVFKTPRAPPAPPKPEPGEAPGASQCMPLKLRFKRRWSEDCRLEGGGGPAGGFEDEGEDKKVRGEGPGEAGGPLTPRRVSSDLQHATAQLSLEHRDS
B9: DLX2, Q07687 (protein)
chain: MTGVFDSLVADMHSTQIAASSTYHQHQQPPSGGGAGPGGNSSSSSSLHKPQESPTLPVSTATDSSYYTNQQHPAGGGGGGGSPYAHMGSYQYQASGLNNVPYSAKSSYDLGYTAAYTSYAPYGTSSSPANNEPEKEDLEPEIRIVNGKPKKVRKPRTIYSSFQLAALQRRFQKTQYLALPERAELAASLGLTQTQVKIWFQNRRSKFKKMWKSGEIPSEQHPGASASPPCASPPVSAPASWDFGVPQRMAGGGGPGSGGSGAGSSGSSPSSAASAFLGNYPWYHQTSGSASHLQATAPLLHPTQTPQPHHHHHHHGGGGAPVSAGTIF

The list shows a part of the results. Binding of human transcription factors and regulators to the viral nucleoprotein by AlphaScreen, crude cell-free proteins, amounts not normalised, one pass. Fold of the Venus control; higher = more signal. No active / inactive call. Single-pass screen; sequences are the whole Swiss-Prot entries looked up by name.

The experiment has as its target nucleoprotein N of Crimean-Congo hemorrhagic fever virus. Kind of experiment: AlphaScreen luminescence signal relative to Venus negative control (fold); higher = stronger binding to CCHFV N. The procedure: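 AlphaScreen binding of cell-free made, FLAG-GST-tagged human transcription factors and regulators (crude translation products) to biotinylated N protein; signal as fold of the FLAG-GST-Venus control. One pass.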
Background: In Alpha technology, singlet oxygen from a donor bead excites a nearby acceptor bead.
Molecule B1 yielded an AlphaScreen luminescence signal of 9.91. B2 yielded an AlphaScreen luminescence signal of 1.63. Under B3 stands 2.23; under B4, 5.3. The molecule B5 had an AlphaScreen luminescence signal of 8.09. The molecule B6 registered an AlphaScreen luminescence signal of 4.93.

As to B7, the AlphaScreen luminescence signal turned out to be 3.63. B8 had an AlphaScreen luminescence signal of 2.47. As for B9, the AlphaScreen luminescence signal was 3.58.
